Laboratory results taken from PubChem BioAssay AID360 (National Center for Advancing Translational Sciences (NCATS), 2006).
In all, about 48,000 compounds went through this assay and about 550 (1.1%) were called active. Inconclusive results (about 4%) are left out. Rule as the data show it: active = potency below about 15 µM; inconclusive = mostly about 16 µM to 33 µM; inactive = weaker than that. The list shows a part of the results.

molecular target: Lysosomal acid glucosylceramidase (Homo sapiens) (UniProt P04062); assay: Glucocerebrosidase; details: purified enzyme, resorufin glucoside fluorescence (screen aimed at inhibitors), 20 min;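 also: the screen sought inhibitors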
Outline: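 Wild-type enzyme at 0.2 nM final in 50mM citric acid/KH2PO4, 10mM sodium taurocholate, 0.01% tween-20, pH 5.9, with resorufin beta-D-glucopyranoside at 30 uM final. Compounds titrated, 20 min at RT, red fluorescence read; AC50 from titration.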
Potency is read from the fitted curve at half-maximal effect.

Sequence of UniProt P04062 (P04062 whole entry, looked up): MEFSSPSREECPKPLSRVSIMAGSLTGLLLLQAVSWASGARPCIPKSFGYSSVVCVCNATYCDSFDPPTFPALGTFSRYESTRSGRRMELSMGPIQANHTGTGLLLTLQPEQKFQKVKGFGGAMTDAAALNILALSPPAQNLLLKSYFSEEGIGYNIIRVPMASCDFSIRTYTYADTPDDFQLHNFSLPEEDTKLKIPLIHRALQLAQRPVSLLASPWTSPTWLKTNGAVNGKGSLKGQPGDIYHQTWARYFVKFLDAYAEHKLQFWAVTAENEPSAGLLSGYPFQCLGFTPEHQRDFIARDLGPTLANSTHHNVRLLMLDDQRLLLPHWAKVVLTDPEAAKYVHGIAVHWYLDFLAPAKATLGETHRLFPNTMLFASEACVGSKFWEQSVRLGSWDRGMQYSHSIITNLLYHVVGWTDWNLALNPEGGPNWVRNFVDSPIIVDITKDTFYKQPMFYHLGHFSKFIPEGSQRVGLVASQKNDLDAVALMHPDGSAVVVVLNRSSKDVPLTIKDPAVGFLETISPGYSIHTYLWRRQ

Potency, inactive:
CCOC(=O)C1CCN(Cc2nc3ccc(Cl)cc3n2CCO)CC1 > 76.9 µM
CN(C)/C=N/c1ncnc2c1cnn2-c1ccc(C(F)(F)F)cn1 > 76.9 µM
Cc1ccc2nc(NC(=O)C3CCN(S(=O)(=O)c4cccc5nsnc45)CC3)sc2c1 > 76.9 µM
COCC(=O)Nc1ccccc1NC(C)=O > 76.9 µM
O=S(=O)(Nc1ccc(S(=O)(=O)N2CCCCC2)cc1)c1cccs1 > 76.9 µM
CCN(c1cccc(C(F)(F)F)c1)S(=O)(=O)c1ccc2c(c1)CCN2C(=O)C1CC1 > 76.9 µM
CCN(CC)CCCN1C(=O)c2oc3ccccc3c(=O)c2C1c1cc(OC)ccc1OC (stereo unspecified) > 76.9 µM
CCOC(=O)CSc1nc2ccsc2c(=O)n1C1CCN(C(=O)OCC)CC1 > 76.9 µM
Cc1ccc(N2C(=O)c3n[nH]c(C)c3C2c2cccnc2)cc1 (stereo unspecified) > 76.9 µM
CCOC(=O)N1CCN(C(=O)c2ccccc2CCc2ccccc2)CC1 > 76.9 µM
COc1ccc(S(=O)(=O)Nc2nncs2)cc1 > 76.9 µM
Cc1nc(Nc2ccncc2)c2oc3ccccc3c2n1 > 76.9 µM
Cc1occc1C(=O)Nc1ccc2c(c1)OCO2 > 76.9 µM
c1ccc(Cn2nnc3c(N4CCC5(CC4)OCCO5)ncnc32)cc1 > 76.9 µM
CCOC(=O)c1ccc(NC2c3ncccc3C(=O)N2Cc2ccc(F)cc2)cc1 (stereo unspecified) > 76.9 µM
O=C(NCc1cccnc1)c1cccc2c1C(=O)N(C1CCCCC1)C2 > 76.9 µM
CCCCOc1ccc(C(=O)NC)cc1 > 76.9 µM
O=C(OCC(=O)N1CCN(C(=O)c2ccco2)CC1)c1sc2cc(F)ccc2c1Cl > 76.9 µM
Cc1cccc(NC(=O)CSc2nnc(-c3ccccc3Br)o2)c1C > 76.9 µM
COCC(=O)Nc1cc(OC)ccc1OC > 76.9 µM
CC(/C=N/n1cnnc1)=C\c1ccco1 > 76.9 µM
CCS(=O)(=O)N1CCC(C(=O)NCCCN2CCCC2)CC1 > 76.9 µM
COc1ccc(C)cc1S(=O)(=O)N(C)CC(=O)N1CCCCCC1 > 76.9 µM
Nn1c(SCC(=O)NCc2ccccc2)nnc1C1CC1 > 76.9 µM
COCCNC(=O)Cn1nc(-c2ccccc2OC)ccc1=O > 76.9 µM
CC1(C)Cc2c(C#N)c(N)n(-c3ccccc3)c(=O)c2CO1 > 76.9 µM
Cn1cccc1C(=O)c1ccc(Cl)cc1Cl > 76.9 µM
O=C(CSc1nnc(Cn2c(=O)sc3ccccc32)n1-c1ccccc1)N1CCOCC1 > 76.9 µM
O=C(C1Cc2ccccc2CN1S(=O)(=O)c1ccc(F)cc1)N1CCCCCC1 (stereo unspecified) > 76.9 µM
Cc1ccc(C)c(C(=O)CSc2n[nH]c(-c3ccncc3)n2)c1
Cc1ccc(-n2c(CSc3nc(C)cc(C)n3)nnc2SCC(=O)NCc2ccco2)cc1 > 76.9 µM
COc1ccc(-n2c(=O)c3ccccc3n(CC(=O)Nc3cc(C)on3)c2=O)cc1OC > 76.9 µM
CC(=O)N1CCc2cc(S(=O)(=O)Nc3cccc(C(F)(F)F)c3)ccc21 > 76.9 µM
CC(C)n1c(NCc2nc3ccccc3n2C)nc2ccccc21 > 76.9 µM
O=C(C1CCN(S(=O)(=O)c2ccc3c(c2)OCCO3)CC1)N1CCc2ccccc21 > 76.9 µM
CCCCOC(=O)C1[C@H]2C(=O)N(CCc3ccccc3)C[C@]23C=C[C@H]1O3 (stereo partly specified) > 76.9 µM
CCOc1ccc(NC(=O)C2CCC(N3C(=O)C4CC=CCC4C3=O)CC2)cc1 (stereo unspecified) > 76.9 µM
O=C(O)COc1ccc2nsnc2c1Cl > 76.9 µM
COc1ccc(-c2noc(CCC(=O)Nc3nc4ccccc4s3)n2)cc1 > 76.9 µM
Cc1csc(SCC(=O)Nc2nc3ccccc3s2)n1 > 76.9 µM
CCn1c(=O)[nH]c2cc(C(=O)N3CCN(c4ccccc4)CC3)ccc2c1=O > 76.9 µM
CN(Cc1ccccc1)Cc1nc2c(c(=O)n(C)c(=O)n2C)n1Cc1ccc(Cl)cc1 > 76.9 µM
O=C(NCc1ccco1)c1ccc(N2CCCC2=O)cc1 > 76.9 µM
OC1(c2cn(Cc3ccccc3)nn2)CCCCC1 > 76.9 µM
CCC(C)N1CC(C(=O)NC2CCCCC2)CC1=O (stereo unspecified) > 76.9 µM
O=C(CSC1=NCCS1)Nc1ccnc2ccccc12 > 76.9 µM
N#CCc1ccc(NC(=O)Nc2cccc(Cl)c2)cc1 > 76.9 µM
CC1CCN(C(=O)CCc2nc3cc(S(=O)(=O)N(C)C)ccc3n2C)CC1 > 76.9 µM
Cc1ccc2c(c1)N(CCC(=O)NCc1cccnc1)C(=O)CO2 > 76.9 µM
O=C(c1ccc(S(=O)(=O)N2CCCCC2)cc1)N1CCN(c2ccccc2)CC1 > 76.9 µM
CCSc1nnc(NC(=O)CSc2nccn2-c2cccc(C)c2C)s1 > 76.9 µM
COc1ccc(N2C(=O)CCC(C(=O)Nc3ccccn3)C2c2ccc(OC)c(OC)c2)cc1 (stereo unspecified) > 76.9 µM
CCOC(=O)N1CCC(NS(=O)(=O)c2cc(Br)cc3c2N(C(=O)CC)CC3)CC1 > 76.9 µM
CCOc1cccc(C(=O)Nc2cccc(-c3nnc(-c4ccc(C)cc4)o3)c2)c1 > 76.9 µM
Cc1nc2ccccc2c(=O)n1/N=C/c1ccc(N(C)C)cc1 > 76.9 µM
O=c1oc2ccc3ccccc3c2cc1-c1nnc(-c2ccccc2)o1 > 76.9 µM
O=C(O)c1ccc(C(=O)c2ccc3c(c2)C(=O)N(Cc2ccco2)C3=O)cc1 > 76.9 µM
COc1cc2cc(C)c(SCC(=O)N3CCOCC3)nc2cc1OC > 76.9 µM
Cc1nc(SCc2ccc(Br)cc2)[nH]c(=O)c1C > 76.9 µM
O=C(c1cc2c(=O)n3ccccc3nc2s1)N1CCOCC1 > 76.9 µM
COc1ccc(OC)c(C2C3CN(C(C)C)CC=C3C(C#N)=C(N)C2(C#N)C#N)c1 (stereo unspecified) > 76.9 µM
CC(=O)c1cccc(NC(=O)CN(c2ccccc2)S(C)(=O)=O)c1 > 76.9 µM
Cc1ccc2nc(Cc3ccc(N)cc3)oc2c1 > 76.9 µM
Cc1ccc(-c2nnn(CC(=O)N(Cc3ccccc3)C(C(=O)NC(C)(C)C)c3ccncc3)n2)o1 (stereo unspecified) > 76.9 µM
CCOC(=O)C(Cc1ccccc1)NC(=O)CCc1c(C)nc2ncnn2c1C (stereo unspecified) > 76.9 µM
COc1ccc(NC(=O)Nc2nccs2)cc1 > 76.9 µM
O=C(O)c1ccc(-c2ccccc2Cl)o1 > 76.9 µM
CCCCCCn1c(SCCC)nc2c1c(=O)[nH]c(=O)n2C > 76.9 µM
COc1ccccc1-c1nnc(SCC(=O)O)n1C > 76.9 µM
COC(=O)C1(C(O)C(=O)c2ccc(C)cc2C)CCCCC1 (stereo unspecified) > 76.9 µM
CCC(C(=O)Nc1cc(C)nn1-c1nc(C)cc(C)n1)c1ccccc1 (stereo unspecified) > 76.9 µM
Cc1nc(NC(=O)c2ccc(Br)s2)sc1C(=O)N(C)C > 76.9 µM
c1ccc(Cn2nnnc2C(c2cccs2)N2CCSCC2)cc1 (stereo unspecified) > 76.9 µM
O=C(c1ccccc1NS(=O)(=O)c1ccc(Br)s1)N1CCOCC1 > 76.9 µM
C/C(Cl)=C/Cn1c(=O)c2c(nc(Br)n2Cc2ccccc2)n(C)c1=O > 76.9 µM
CCN1CCN(C(c2ccccc2OC)c2nnnn2C2CCCCC2)CC1 (stereo unspecified) > 76.9 µM
Cc1oc(-c2ccc(Cl)cc2)nc1CN1CCCC(C(=O)N2CCc3ccccc32)C1 (stereo unspecified) > 76.9 µM
O=C(CSc1nnc(-c2ccncc2)n1Cc1ccco1)OC1CCCCC1 > 76.9 µM
O=C(NCC1CCCO1)c1sc(=S)n2c1[nH]c(=O)c1ccc(C(=O)N3CCCCC3)cc12 (stereo unspecified) > 76.9 µM
COC(=O)c1cc(OC)c(OC)c(OC)c1N > 76.9 µM
O=C(NCc1cccnc1)c1ccc(COc2ccccc2Br)o1 > 76.9 µM
CCC1(C)Cc2nc3sc(C(=O)O)c(N)c3cc2CO1 (stereo unspecified) > 76.9 µM
CCS(=O)(=O)C(=C1NCCO1)S(=O)(=O)CC > 76.9 µM
Cc1cc(N)n(-c2nc(-c3cccnc3)nc3ccccc23)n1 > 76.9 µM
CCOC(=O)c1cccc2c1-c1ccccc1/C2=N/O > 76.9 µM
CC(C)(C)OC(=O)N1CCC[C@H]1c1nnc(SCc2c(F)cccc2Cl)o1 > 76.9 µM
CC1Cc2ccccc2N1C(=O)CSc1nc2c(c(=O)n(C)c(=O)n2C)n1Cc1ccccc1 (stereo unspecified) > 76.9 µM
O=C(Cn1c(NCCO)nc2ccccc21)c1ccco1
Cc1csc(NC(=O)CSc2nnc(-c3ccccn3)n2-c2ccc(C)c(C)c2)n1 > 76.9 µM
CN=c1oc2ccc(Cl)cc2cc1C(N)=O > 76.9 µM
NC(=O)c1c(NC(=O)CN2CCOCC2)sc2c1CCC2 > 76.9 µM
